Source: PMC4336329 (PLoS ONE, 2015)
Out of some 310,000 compounds screened, about 14,000 (4.5%) showed an effect of 50% or more. Effects have a minus sign here. Some of the results follow.

target: human ether-à-go-go-related gene (hERG) potassium channel (human, UniProt Q12809); assay: primary screen, population patch clamp on CHO cells stably expressing hERG
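Also: peak tail current of the secondary pulse compared with the same well before compound.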

Chain of human ether-à-go-go-related gene (hERG) potassium channel (Q12809 whole entry, looked up): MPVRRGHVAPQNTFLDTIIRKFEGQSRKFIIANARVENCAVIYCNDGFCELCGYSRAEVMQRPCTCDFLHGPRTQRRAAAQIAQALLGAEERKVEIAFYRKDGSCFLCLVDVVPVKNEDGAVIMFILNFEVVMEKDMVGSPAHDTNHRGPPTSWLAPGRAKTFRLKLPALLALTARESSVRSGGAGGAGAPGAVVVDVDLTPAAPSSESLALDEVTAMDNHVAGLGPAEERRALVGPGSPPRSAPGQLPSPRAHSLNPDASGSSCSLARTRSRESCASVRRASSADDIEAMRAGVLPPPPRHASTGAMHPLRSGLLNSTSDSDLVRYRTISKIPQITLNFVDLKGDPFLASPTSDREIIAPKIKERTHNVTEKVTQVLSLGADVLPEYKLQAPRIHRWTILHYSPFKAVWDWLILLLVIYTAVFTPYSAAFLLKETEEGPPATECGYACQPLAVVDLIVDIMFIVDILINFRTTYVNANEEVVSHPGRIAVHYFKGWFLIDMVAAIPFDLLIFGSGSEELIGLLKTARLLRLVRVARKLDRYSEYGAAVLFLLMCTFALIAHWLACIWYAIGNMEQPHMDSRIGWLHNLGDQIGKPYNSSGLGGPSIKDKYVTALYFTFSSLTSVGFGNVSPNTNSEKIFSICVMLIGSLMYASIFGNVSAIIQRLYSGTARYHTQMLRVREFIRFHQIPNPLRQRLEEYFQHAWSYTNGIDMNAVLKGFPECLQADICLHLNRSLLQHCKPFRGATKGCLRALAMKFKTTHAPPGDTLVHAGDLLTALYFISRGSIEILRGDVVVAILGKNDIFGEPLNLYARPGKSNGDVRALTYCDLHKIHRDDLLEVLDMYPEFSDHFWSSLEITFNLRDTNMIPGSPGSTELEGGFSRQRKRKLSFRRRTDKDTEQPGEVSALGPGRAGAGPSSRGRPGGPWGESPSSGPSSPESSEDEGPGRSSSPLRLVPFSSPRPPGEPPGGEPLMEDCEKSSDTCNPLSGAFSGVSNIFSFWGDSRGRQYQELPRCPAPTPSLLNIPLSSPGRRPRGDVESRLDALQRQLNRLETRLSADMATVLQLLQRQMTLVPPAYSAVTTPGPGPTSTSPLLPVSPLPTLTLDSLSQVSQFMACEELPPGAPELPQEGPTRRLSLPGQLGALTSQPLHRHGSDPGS

| SMILES | hERG current change (%, negative = inhibition) at 10uM |
| --- | --- |
| CC1OC(OC2C(Oc3c(-c4ccc(O)cc4)oc4cc(O)cc(O)c4c3=O)OC(COC3O[C@@H](C)[C@H](O)[C@@H](O)C3O)C(O)C2O)C(O)C(O)C1O (stereo partly shown) | 16.8% |
| Cc1nn2c(-c3ccccc3)c(-c3ccccc3)nc2[nH]c1=O | 1.36% |
| CCOC(=O)c1c(C)nc2sc3c(=O)n(-c4ccc(C)cc4)cnc3c2c1-c1ccc(OC)cc1 | 13.2% |
| COc1ccc2oc(C)c(C(=O)c3ccc([N+](=O)[O-])cc3)c2c1 | -12.2% |
| CCN(CC)c1ccc(/C=N/N2CCN(c3ccccn3)CC2)cc1 | 15.1% |
| CCN(CC)C(=O)Cn1cc(C(=O)C(=O)NCCc2ccccc2)c2ccccc21 | 0.8% |
| Cc1cc2cc(CN(CCCO)S(=O)(=O)c3cccc4nsnc34)c(=O)[nH]c2cc1C | 0.493% |
| COc1ccc(NC(=O)c2ccc(C)cc2)c(OC)c1 | -6.01% |
| CN1CCN(C(=O)CSc2nc(-c3cccs3)ccc2C#N)CC1 | -4.44% |
| Cc1ccc(-n2nc(C)cc2NC(=O)COc2cc(C)cc3oc(=O)c4c(c23)CCC4)cc1 | 7.84% |
| O=C(NNS(=O)(=O)c1ccccc1)c1cccc([N+](=O)[O-])c1 | -1.72% |
| COCc1cc(C)n(CC(=O)NC(C)c2ccccc2)c(=O)c1C#N (stereo not shown) | 8.02% |
| COc1ccc(N2C(=O)C(O)C2c2ccc(C)cc2)cc1 (stereo not shown) | 3.71% |
| CCOc1ccc(NC2C=CS(=O)(=O)C2)cc1 (stereo not shown) | -35.1% |
| COc1ccc(C(=O)C(CN2CCCC2)c2ccccc2)cc1 (stereo not shown) | -34.7% |
| COCCn1c(N2CCN(c3ccccc3)CC2)nc2c1c(=O)n(C)c(=O)n2C | -16.4% |
| Brc1ccccc1Cn1cnc2ccccc21 | -6.99% |
| O=C(N/N=C/c1ccc(-c2cccc([N+](=O)[O-])c2)o1)[C@H]1C[C@@H]1c1ccccc1 | 9.39% |
| O=C(NNC(=O)c1cc2cc3ccccc3nc2s1)c1cccc(Cl)c1 | -9.64% |
| COC(=O)CSc1cc(SCC(=O)OC)c(C#N)c(SCC(=O)OC)c1 | -3.35% |
| N#CC1=C(N)C(C#N)(C#N)C(c2cccnc2)C2COCC=C12 (stereo not shown) | -18.2% |
| Cc1cc(NC(=O)CSc2nc3c(c(-c4cccnc4)c2C#N)CCC3)no1 | 4.17% |

| SMILES | hERG current change (%, negative = inhibition) at 10uM |
| --- | --- |
| O=C(CSc1nc2ncccc2[nH]1)Nc1ccccc1-c1ccccc1 | 4.9% |
| COc1ccccc1OCCNC(=O)c1cc(SC)ccc1Cl | -5.27% |
| Cc1csc(NC(=O)C2CCN(S(=O)(=O)c3ccccc3F)CC2)n1 | -3.04% |
| CCOC(=O)C(C)(C)C(=O)C(C)(C)C(O)c1ccccn1 (stereo not shown) | -6.78% |
| CCCCN(C(=S)NC(=O)c1cc(OC)c(OC)c(OC)c1)c1c(N)n(Cc2ccccc2)c(=O)[nH]c1=O | 13.7% |
| CN1CCC(OC(=O)c2ccc(Cl)cc2Cl)CC1.Cl | -55.9% |
| O=C(CN1C(=O)c2cccc3cccc1c23)Nc1ccc(S(=O)(=O)N2CCOCC2)cc1 | -9.06% |
| Cc1cccc(NC(=O)c2nc[nH]c2C(=O)N[C@@H](Cc2ccccc2)C(=O)OC(C)(C)C)c1 | 19.7% |
| COc1ccc(CN(C)C(=O)c2ccc(NS(=O)(=O)c3ccc(F)cc3)cc2)c(OC)c1 | 3.52% |
| CC(=O)OC(C)(C)C1Cc2cc3ccc(=O)oc3cc2O1 (stereo not shown) | 16.4% |
| N#Cc1c(C(F)(F)F)cc(-c2cccs2)nc1SCC(=O)O | -5.3% |
| COc1ccc2[nH]cc(C(=O)CNc3nc(C)cs3)c2c1.I | -24.4% |
| COc1cc([C@@H]2C[C@H]3CN(c4ccccc4)C(=O)[C@]34CCCN24)cc(OC)c1OC | -32% |
| Br.CCCC(=O)Nc1ccc(-c2csc(N/N=C\c3ccncc3)n2)cc1 | 25.3% |
| CCOC(=O)c1[nH]c2ccc(OC)cc2c1C(SCC(=O)O)c1ccc(C(F)(F)F)cc1 (stereo not shown) | 8.98% |
| O=C(CSc1nnc(CNC(=O)c2cccs2)o1)NCC1CCCO1 (stereo not shown) | 8.14% |
| CCOc1ccc2nc(NC(=O)CSc3nc4cccnc4n3C)sc2c1 | 17.4% |
| CCC(C)(C(=O)NC1CCCCC1)N(CC1CCCO1)C(=O)Cc1cccs1 (stereo not shown) | 2.49% |
| CN(C)c1ccc(N=Cc2cccn2C)cc1 | 23.6% |
| Cc1ccc(S(=O)(=O)N(C)c2ccc(C(=O)N3CCN(Cc4ccc5c(c4)OCO5)CC3)cc2)cc1 | -44.1% |
| O=C(Nc1ccccc1)C1=C(N2CCOCC2)/C(=C/c2cccnc2)CC1 | -40.2% |
